These are yes or no findings as the source states them, for the method shown. For some of these results: Binding seen in cells or lysates may run through a third protein. Some binding calls cover weakened binding; strength is not graded here. For some of these results: Sequences can lack the tags named with a protein.
B1: DapF, diaminopimelate (DAP) epimerase, endogenous in MG1655 crude extract (enzyme, UniProt P0A6K1 1-274)
chain: MQFSKMHGLGNDFMVVDAVTQNVFFSPELIRRLADRHLGVGFDQLLVVEPPYDPELDFHYRIFNADGSEVAQCGNGARCFARFVRLKGLTNKRDIRVSTANGRMVLTVTDDDLVRVNMGEPNFEPSAVPFRANKAEKTYIMRAAEQTILCGVVSMGNPHCVIQVDDVDTAAVETLGPVLESHERFPERANIGFMQVVKREHIRLRVYERGAGETQACGSGACAAVAVGIQQGLLAEEVRVELPGGRLDIAWKGPGHPLYMTGPAVHVYDGFIHL
B2: DapF co-expressed with His-RppH from pDuet-RD (enzyme, E. coli, UniProt P0A6K1 1-274, looked up)
chain: B1 chain
notes: DapF, diaminopimelate epimerase, E. coli; source: E. coli ER2566 harboring pDuet-RD (from the pET-duet vector), in crude extract
B3: T18-DapF (enzyme, UniProt P0A6K1 1-274)
chain: B1 chain
B4: RppH, endogenous in wild-type MG1655 crude extract (enzyme, UniProt P0A776 1-176)
chain: MIDDDGYRPNVGIVICNRQGQVMWARRFGQHSWQFPQGGINPGESAEQAMYRELFEEVGLSRKDVRILASTRNWLRYKLPKRLVRWDTKPVCIGQKQKWFLLQLVSGDAEINMQTSSTPEFDGWRWVSYWYPVRQVVSFKRDVYRRVMKEFASVVMSLQENTPKPQNASAYRRKRG
B5: RppH in the crude extract of RppH-overexpressing cells (enzyme, UniProt P0A776 1-176)
chain: B4 chain
B6: DapF, diaminopimelate (DAP) epimerase, purified (enzyme, E. coli, UniProt P0A6K1 1-274, looked up)
chain: B1 chain
notes: DapF, diaminopimelate epimerase, E. coli; The text sets 'purified DapF' (untagged) against His-DapF in the pull-downs; also called purified DapF; untagged DapF; source: purified
B7: RppH, RNA pyrophosphohydrolase, purified (enzyme, E. coli, UniProt P0A776 1-176, looked up)
chain: B4 chain
notes: RppH (NudH), RNA pyrophosphohydrolase, E. coli; Named only 'RppH' in gel filtration, SPR and the activity assays; The methods describe only the purification of His-RppH, so this may be the same protein as m1; also called purified RppH; NudH; source: purified

Experiments:
[1] = target: T1, His6-RppH (6His-tagged form of RppH, RNA pyrophosphohydrolase) (E. coli) (UniProt P0A776); assay: pull-down; ligand fishing: 500 μg purified His-RppH as bait mixed with MG1655 crude extract, TALON metal affinity resin, 50 mM Tris-HCl pH 8.0, 300 mM NaCl, eluted with 200 mM imidazole; SDS-PAGE with Coomassie, band identified by peptide mapping of tryptic digests; only the target purified
T1 sequence: B4 chain

[2] = target: T2, His-RppH co-expressed with DapF from pDuet-RD (E. coli) (UniProt P0A776); assay: pull-down; DapF and His-RppH co-expressed from pDuet-RD in E. coli ER2566; crude extract loaded onto a TALON metal affinity column; SDS-PAGE
T2 sequence: B4 chain

[3] = target: T3, T25-RppH (E. coli) (UniProt P0A776); assay: two-hybrid; bacterial two-hybrid (BACTH), reconstitution of B. pertussis adenylyl cyclase from T18 and T25 in cya-deficient E. coli BTH101; colour on LB X-gal plates, 30°C overnight
T3 sequence: B4 chain

[4] = target: T4, His6-DapF (DapF with an N-terminal 6His-tag) (E. coli) (UniProt P0A6K1); assay: pull-down; purified His-DapF (or untagged DapF as control) mixed with crude extract of wild-type MG1655 or of RppH-overexpressing cells, TALON metal affinity resin; only the target purified
T4 sequence: B1 chain

[5] = target: T5, His-enzyme IIA^Ntr (E. coli) (UniProt P69829); assay: pull-down; purified DapF mixed with varying amounts of His-RppH or the control protein His-enzyme IIA^Ntr on the metal affinity resin; band intensities on gel; both purified
T5 sequence: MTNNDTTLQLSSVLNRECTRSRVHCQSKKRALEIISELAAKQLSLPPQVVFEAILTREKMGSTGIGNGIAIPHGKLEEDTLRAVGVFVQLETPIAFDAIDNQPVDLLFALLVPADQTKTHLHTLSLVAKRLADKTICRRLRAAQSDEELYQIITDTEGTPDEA

[6] = target: B7; assay: SEC; Superose 12 10/300 GL, 50 mM Tris-HCl pH 8.0, 100 mM NaCl, room temperature, 0.5 ml/min; 50 μg RppH, 400 μg DapF (or 100 μg DapF(C73&217A)) or both in 250 μl, incubated 10 min on ice; fractions on SDS-PAGE; both purified

For B1, the binding [1] was “binds”.

With B2 the binding [2] was “binds”.

B3 was tested, and the binding [3] was “binds”.

For B4, the binding [4] was “binds”.

B5 was tested, and the binding [4] was “binds”.

In the case of B6, the binding [5] is reported as “no binding”.

B7 was tested, and the binding [6] was “no binding (tested: 50 μg in 250 μl)”.

From paper PMC4227774, “RppH-dependent pyrophosphohydrolysis of mRNAs is regulated by direct interaction with DapF in Escherichia coli” (Nucleic Acids Research, 2014)
